Source: PubChem BioAssay AID624173 (National Center for Advancing Translational Sciences (NCATS), 2012)
About 490 (0.12%) of roughly 410,000 compounds were called active. The inconclusive results got no clear call from the source; some entries with a clear call stand among them for comparison. The call rests on the fitted dose curve; in most records, active means well fitted inhibition curve with a large enough effect; inconclusive means small, poorly fitted or top-dose-only effect; inactive means flat fitted curve, though single readings scatter. A potency beside an inconclusive call is a rough fit, not a confirmed value.
Further: nearly all actives have a fitted effect of over 50% in size.
On the % scale 0 is the no-effect control and ±100 the full control effect; potency means the concentration at half of the fitted maximal effect; tags describe the fitted curve by direction and shape.

Each molecule was assayed against pyruvate kinase (Trypanosoma brucei) (UniProt Q57TT1) (assay: qHTS of Trypanosoma Brucei Inhibitors). Details: TbPYK enzyme, Kinase-Glo Plus ATP luminescence, 45 min; series mostly up to 76.8 µM; activity, negative = inhibition: at the top concentration.
Summary of the method: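 T. brucei PYK with substrate was exposed to pin-transferred compounds across a concentration series, then started with 130 uM ADP (final). After 45 min at room temperature, Kinase-Glo Plus luminescence was read, normalized and curve-fitted.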
With `COc1ccc(C2C(=O)N(C3CCCCC3)CC(=O)N2CCC2=CCCCC2)cc1` (centres undefined) the “activity, negative = inhibition” value was inactive: -3.17%.
For `CCOC(=O)c1ccc(NC(=O)CSc2c(C(C)C)cnc3c2c(=O)n(C)c(=O)n3C)cc1`, the Potency was inconclusive: 31.6 µM [inhibitor, single point].
`CCN(CC)CCCNC(=O)c1ccc2c(=O)n(Cc3ccc4c(c3)OCO4)c(=S)[nH]c2c1` was tested, and the Potency was inconclusive: 28.2 µM [inhibitor, partial curve, poor fit].
`Cc1ccccc1/C=N/NC(=O)c1sccc1C` was tested, and the “activity, negative = inhibition” value was inactive: -4.98%.
In the case of `CC1=C(CC(=O)O)c2cc(F)ccc2/C1=C\c1ccc(S(C)=O)cc1` (centres undefined), the Potency is reported as “inactive”.
In the case of `C/C(=N\NC(=O)C1COc2ccccc2O1)c1ccccn1` (centres undefined), the “activity, negative = inhibition” value is reported as inactive: -3.04%.
In the case of `O=C1C(=Cc2ccccc2O)SC(=S)N1CCCN1CCOCC1`, the Potency is reported as inconclusive: 20 µM [inhibitor, partial curve, poor fit].
`COc1ccccc1NS(=O)(=O)c1cc(NC(=O)c2sccc2C)ccc1N1CCCC1` was tested, and the Potency was inconclusive: 12.6 µM [inhibitor, partial curve].
For `CCOC(=O)CSc1nnc(Cn2c(=O)sc3ccccc32)n1-c1ccccc1C`, the Potency was inconclusive: 35.5 µM [inhibitor, single point].
`Cc1ccc2c(c1)c1nnc(SCC(=O)N3CCN(c4ccc(F)cc4)CC3)nc1n2CC(=O)O` was tested, and the Potency was inconclusive: 39.8 µM [inhibitor, single point].
For `CC(=O)C1=C(C)NC(SCC(=O)c2ccccc2)=C(C#N)C1CC(C)C` (centres undefined), the Potency was active: 31.6 µM.
For `COc1ccc(N2CCN(C(=O)c3ccc4c(c3)N(Cc3ccc(F)cc3)C(=O)c3ccccc3S4=O)CC2)cc1` (centres undefined), the “activity, negative = inhibition” value was inactive: -6.3%.
In the case of `O=C(c1cccs1)N1CCN(c2nc3c(F)cc(F)cc3s2)CC1`, the “activity, negative = inhibition” value is reported as inactive: -7.88%.
For `O=c1c2ccccc2nc2n1CCC2`, the Potency was inconclusive: 50.1 µM [inhibitor, single point].
With `CC(=O)Nc1nonc1-c1nc2ccccc2n1CC1CC1` the “activity, negative = inhibition” value was inactive: 2.77%.
`O=C(O)CSCC(=O)Nc1ccc(-c2nc3ccccc3s2)cc1` was tested, and the Potency was inconclusive: 20 µM [inhibitor, partial curve].
For `Cc1ccsc1/C=N/n1c(COc2ccccc2)n[nH]c1=S`, the Potency was inconclusive: 1 µM [inhibitor, full curve, poor fit].
With `CCn1c(=O)c(C(=O)Nc2ccccc2C)c(O)c2ccccc21` the Potency was inconclusive: 0.794 µM [inhibitor, full curve, poor fit].
For `N#Cc1c(/N=C/c2c(O)n(Cc3ccco3)c(=O)[nH]c2=O)sc2c1CCCC2`, the Potency was inconclusive: 28.2 µM [inhibitor, partial curve, poor fit].
In the case of `Cc1cc(-n2ccnc2)n2c(nc3ccccc32)c1C#N`, the “activity, negative = inhibition” value is reported as inactive: -3.22%.
In the case of `O=C1CC(N2CCN(c3ccc(O)cc3)CC2)C(=O)N1Cc1cccs1` (centres undefined), the Potency is reported as inconclusive: 39.8 µM [inhibitor, single point].
`O=C(Nn1c(=S)[nH]c2ccccc2c1=O)c1ccncc1` was tested, and the “activity, negative = inhibition” value was inactive: -6.37%.
With `CCc1ccc(NS(=O)(=O)c2ccc3[nH]cc(C(=O)NCC4CCCO4)c(=O)c3c2)cc1` (centres undefined) the “activity, negative = inhibition” value was inactive: -1.92%.
For `COc1ccc(OC)c(/C=N/N(C)c2ccccc2)c1`, the “activity, negative = inhibition” value was inactive: -17.1%.
`CCn1nc(C)c(/C=N/NC(=O)c2ccoc2C)c1C` was tested, and the Potency was inconclusive: 50.1 µM [inhibitor, single point].
With `CC(C)c1cnc2c(c1SCC(=O)Nc1ccccc1C(F)(F)F)c(=O)n(C)c(=O)n2C` the Potency was inconclusive: 35.5 µM [inhibitor, single point].
`COc1ccc(OCC(=O)Nc2ccc3c(c2)nc2n3CCSC2)cc1` was tested, and the “activity, negative = inhibition” value was inactive: -2.4%.
For `COc1ccc(CN(C(=O)/C=C/C(=O)c2ccc(OC)cc2O)C(C(=O)NC2CCCCC2)c2ccncc2)cc1` (centres undefined), the “activity, negative = inhibition” value was inactive: -3.93%.
For `O=C(O)C1Nc2c(O)cccc2C2C=CCC12` (centres undefined), the Potency was inconclusive: 20 µM [inhibitor, partial curve, poor fit].
With `CCOc1cc(C)c(-c2onc(C(F)(F)F)c2-c2csc(C)n2)c(O)c1` the “activity, negative = inhibition” value was inactive: -7.01%.
For `O=c1c2ccccc2sn1-c1ccccc1F`, the Potency was active: 7.08 µM.
In the case of `CN(C)C(=O)C(Sc1ccc(S(=O)(=O)N2CCCC2)cn1)c1ccccc1` (centres undefined), the Potency is reported as inconclusive: 31.6 µM [inhibitor, single point].
`COc1c2occc2c(OC(C)=O)c2c(=O)cc(C)oc12` was tested, and the “activity, negative = inhibition” value was inactive: -5.4%.
In the case of `COc1ccc(/C=N/c2c(-c3ccco3)nc3ccccn23)cc1OC`, the Potency is reported as inconclusive: 35.5 µM [inhibitor, single point].
For `Fc1cccc(Cl)c1/C=C/c1cnc2ccccc2n1`, the Potency was inconclusive: 28.2 µM [inhibitor, partial curve, poor fit].
In the case of `Cc1ccc(/C=C/C(=O)OCC(=O)NC(C)c2ccccc2)o1` (centres undefined), the “activity, negative = inhibition” value is reported as inactive: -12.5%.
In the case of `COCCN=c1scc(-c2ccco2)n1/N=C/c1ccc(O)c(O)c1O`, the Potency is reported as inconclusive: 3.16 µM [inhibitor, full curve].
With `NC(=O)c1ccccc1NC(=O)C1CCCN(c2ncnc3onc(-c4ccc(F)cc4)c23)C1` (centres undefined) the “activity, negative = inhibition” value was inactive: 2.67%.
For `COc1ccc(C(=O)CC2(O)C(=O)Nc3c(C)cccc32)c(OC)c1OC` (centres undefined), the “activity, negative = inhibition” value was inactive: 3.27%.
For `O=C1NC(=S)CN1c1ccccc1`, the Potency was inconclusive: 35.5 µM [inhibitor, partial curve].
For `CC(C)NC(=O)C1(S(=O)(=O)c2ccccc2)CC=CC1`, the Potency was inconclusive: 39.8 µM [inhibitor, partial curve, poor fit].
With `O=C(NC(=S)NNC(=O)c1ccco1)c1ccccc1` the Potency was inconclusive: 25.1 µM [inhibitor, partial curve].
For `O=C(CCCc1ccccc1)NCc1ccccc1Cl`, the “activity, negative = inhibition” value was inactive: 3.44%.
`CCOC(=O)c1c(C)[nH]c(C(=O)C(C)OC(=O)c2cccc(OCc3c(C)noc3C)c2)c1C` (centres undefined) was tested, and the “activity, negative = inhibition” value was inactive: -17.1%.
For `COc1ccc(-n2c(COc3ccc(C)cc3)nnc2SCC(N)=O)cc1`, the Potency was inconclusive: 20 µM [inhibitor, partial curve].
`Cn1cnc(Sc2ncnc3nc[nH]c23)c1[N+](=O)[O-]` was tested, and the Potency was inconclusive: 10 µM [inhibitor, partial curve].
For `S=c1[nH]nc(COc2ccccc2)n1-c1ccccc1`, the Potency was inconclusive: 7.94 µM [inhibitor, partial curve, poor fit].
With `COc1ccc(-c2nnc(SC)nc2-c2ccc(OC)c([N+](=O)[O-])c2)cc1[N+](=O)[O-]` the Potency was inconclusive: 20 µM [inhibitor, partial curve, poor fit].
With `Cc1occc1-c1nnc(SCC(=O)c2ccc(Cl)cc2)n1CC1CCCO1` (centres undefined) the “activity, negative = inhibition” value was inactive: -19.7%.
`CCn1c(-c2csc3ccccc23)n[nH]c1=S` was tested, and the Potency was inconclusive: 14.1 µM [inhibitor, partial curve].
For `Fc1ccc(/C=N/n2c(C3CCCCC3)n[nH]c2=S)cc1`, the Potency was inconclusive: 8.91 µM [inhibitor, partial curve, poor fit].
For `Cn1c(C(=O)NCc2cccs2)cc2oc3ccccc3c21`, the “activity, negative = inhibition” value was inactive: 1.15%.
For `O=C(Nc1cc(Cl)ccc1N1CCOCC1)c1ccncc1`, the “activity, negative = inhibition” value was inactive: 1.39%.
With `Cc1ccc(N2C(=O)/C(=C/c3ccc(CN(CCC#N)S(C)(=O)=O)o3)C(=O)NC2=S)cc1` the Potency was inconclusive: 17.8 µM [inhibitor, partial curve, poor fit].
In the case of `COc1ccccc1-n1c(CNC(=O)c2cccc([N+](=O)[O-])c2C)n[nH]c1=S`, the Potency is reported as active: 7.94 µM.
For `O=C(O)C1CCCN(S(=O)(=O)c2ccc(Br)s2)C1` (centres undefined), the “activity, negative = inhibition” value was inactive: 0.606%.
In the case of `CCn1c(-c2cc(C3CC3)nc3ccccc23)n[nH]c1=S`, the Potency is reported as inconclusive: 12.6 µM [inhibitor, partial curve, poor fit].
For `Cc1ccc2cc(NC(=O)c3ccccc3C)ccc2n1`, the “activity, negative = inhibition” value was inactive: -1.78%.
In the case of `COc1ccc(Cn2c(C(=O)O)c(CNCc3ccco3)c3ccc(OC)cc32)cc1`, the “activity, negative = inhibition” value is reported as inactive: -0.677%.
With `CC(C)c1nc(C#N)c(NN)o1` the “activity, negative = inhibition” value was inactive: 0.666%.
With `Cc1cccc(/C=N/n2c(-c3cc(-c4ccccc4)n[nH]3)n[nH]c2=S)c1` the Potency was inconclusive: 3.16 µM [inhibitor, partial curve, poor fit].
With `O=C(O)CCC(=O)Nc1sc2c(c1C(=O)Nc1ccccc1)CCCCC2` the Potency was inconclusive: 11.2 µM [inhibitor, partial curve].
With `O=C(NCc1n[nH]c(=S)n1Cc1ccccc1)c1ccccc1` the Potency was inconclusive: 15.8 µM [inhibitor, partial curve].
In the case of `O=C(c1ccc(-c2nnc(-c3ccccc3)o2)cc1)N1CCCCCC1`, the Potency is reported as inconclusive: 35.5 µM [inhibitor, partial curve, poor fit].
`COc1ccccc1NC(C)=[N+](C)CCNS(=O)(=O)c1ccc(Cl)cc1` was tested, and the Potency was inconclusive: 31.6 µM [inhibitor, single point].
In the case of `CCc1ccccc1NC(=O)c1ccc2nc(C(C)C)oc2c1`, the “activity, negative = inhibition” value is reported as inactive: -1.08%.
`CC(=O)c1ccc(N2CCN(C(=O)CCCCn3c(=O)[nH]c4ccsc4c3=O)CC2)cc1` was tested, and the “activity, negative = inhibition” value was inactive: 1.88%.
For `CN1CCN(C(=O)c2ccc3c(=O)n(Cc4ccc(Cl)cc4)c(=S)[nH]c3c2)CC1`, the Potency was inconclusive: 35.5 µM [inhibitor, single point].
For `CCOC(=O)c1ccc(-n2c(C)ccc2C)cc1`, the “activity, negative = inhibition” value was inactive: 2.87%.
In the case of `O=C1c2ccccc2C(Nc2ccc3c(c2)OCO3)N1Cc1ccc2c(c1)OCO2` (centres undefined), the Potency is reported as inconclusive: 17.8 µM [inhibitor, partial curve].
`O=C(O)C1CC(=O)N(c2ccc3c(c2)OCCO3)C1` (centres undefined) was tested, and the Potency was inconclusive: 31.6 µM [inhibitor, single point].
With `COc1cc2[nH]c(Cl)c([N+](=O)[O-])c2cc1OC` the Potency was inconclusive: 28.2 µM [inhibitor, single point].
With `Cc1ccc(-n2c(Cn3ncc4ccccc4c3=O)n[nH]c2=S)cc1` the Potency was inconclusive: 17.8 µM [inhibitor, partial curve, poor fit].
`C=CCn1c(-c2cccn(Cc3ccc(Cl)cc3Cl)c2=O)n[nH]c1=S` was tested, and the Potency was inconclusive: 14.1 µM [inhibitor, partial curve].
